# Experimental data: PubChem BioAssay AID294 (DTP/NCI, 2004)
# The source holds more than one record for some entries. They are shown here; other results are not. There may be further records. Results that share an entry differ for a reason that is not stated; some may be repeats, others may stem from another dose, organism or construct than stated.
# Test system: MX-1 breast xenograft, nude mice, tumor weight change
# Assay: NCI In Vivo Anticancer Drug Screen. Data for tumor model Human Mammary Carcinoma MX-1 Xenograft (subcutaneous) in NU/NU Swiss (nude) mice
# Settings: endpoint: optimum tumor weight change, schedule: Q04DX003 (ip), higher = larger tumour
# Method: The antitumor activity of compounds was measured in mice bearing transplantable tumors. Survival or tumor size were measured and the results are expressed as the measurement made in the treated group (T) divided by the measurement made in the vehicle treated control group (C). The tumor model used in this assay is Human Mammary Carcinoma MX-1 Xenograft (subcutaneous) in NU/NU Swiss (nude) mice
# [1] = dose: 1.5 mg/kg/injection, vehicle: saline
# [2] = dose: 15.0 mg/kg/injection, vehicle: saline
smiles,measurement,setting,value
COC1C(O)CC(OC2CC(OC3CC(O[C@@H]4C(=O)c5c(cc6cc(OC7CC(OC8CC(O)C(O)C(C)O8)C(O)C(C)O7)c(C)c(O)c6c5O)C[C@H]4[C@H](OC)C(=O)[C@@H](O)[C@@H](C)O)OC(C)C3O)OC(C)C2O)OC1C (stereo partly specified),T/C,[1],11 % of control and 87 % of control
COc1cccc2c1C(=O)c1c(O)c3c(c(O)c1C2=O)C[C@@](O)(C(=O)CO)C[C@@H]3OC1CC(N)C(O)C(C)O1 (stereo partly specified),T/C,"dose: 2.0 mg/kg/injection, vehicle: water","69 % of control, 72 % of control, 104 % of control"
same,T/C,"dose: 4.0 mg/kg/injection, vehicle: water","39 % of control, 42 % of control, 68 % of control"
Cc1c(N)nc([C@H](CC(N)=O)NC[C@H](N)C(N)=O)nc1C(=O)N[C@H](C(=O)N[C@H](C)[C@@H](O)CC(=O)N[C@H](C(=O)NC(O[C@@H]1O[C@@H](C)[C@@H](N)[C@@H](O)[C@H]1O)C(O)c1nc(-c2nc(C(=O)NCCCCN)cs2)cs1)[C@@H](C)O)[C@@H](O[C@@H]1O[C@@H](CO)[C@@H](O)[C@H](O)[C@@H]1O[C@H]1O[C@H](CO)[C@@H](O)[C@H](OC(N)=O)[C@@H]1O)c1c[nH]cn1 (stereo partly specified),T/C,"dose: 16.0 mg/kg/injection, vehicle: saline","26 % of control, 38 % of control, 53 % of control"
CCCCNCCCNCCCNC(=O)c1csc(-c2csc(CCNC(=O)C(NC(=O)C(C)C(O)C(C)NC(=O)C(NC(=O)c3nc(C(CC(N)=O)NCC(N)C(N)=O)nc(N)c3C)C(OC3OC(CO)C(O)C(O)C3OC3OC(CO)C(O)C(OC(N)=O)C3O)c3cnc[nH]3)C(C)O)n2)n1 (stereo unspecified),T/C,[2],14 % of control and 43 % of control
CCOC(=O)C1C2OC(=O)C(C(=O)C2CN(CCCl)CCCl)C1C1CC=C(CC2=CCC(C3C4C(=O)OC(C(CN(CCCl)CCCl)C4=O)C3C(=O)OCC)CC2)CC1 (stereo unspecified),T/C,"dose: 50.0 mg/kg/injection, vehicle: Klucel (hydroxypropylcellulose) (HPC)","43 % of control, 75 % of control, 165 % of control"
Cc1c(N)nc(C(CC(N)=O)NCC(N)C(N)=O)nc1C(=O)NC(C(=O)NC(C)C(O)C(C)C(=O)NC(C(=O)NCCc1nc(-c2nc(C(=O)NCCCNC(C)c3ccccc3)cs2)cs1)C(C)O)C(OC1OC(CO)C(O)C(O)C1OC1OC(CO)C(O)C(OC(N)=O)C1O)c1cnc[nH]1 (stereo unspecified),T/C,[2],"32 % of control, 34 % of control, 62 % of control"
C[n+]1c(-c2cccc3ccccc23)c2cc(N)ccc2c2ccccc21,T/C,[1],76 % of control and 118 % of control
CSc1cc(=O)n2c3ccccc3c3ccnc1c32,T/C,"dose: 40.0 mg/kg/injection, vehicle: saline with Tween-80","56 % of control, 85 % of control, 96 % of control"
N[C@@H](Cc1ccc(N(CCCl)CCCl)cc1)C(=O)O,T/C,"dose: 2.0 mg/kg/injection, vehicle: suspension in saline",37 % of control and 97 % of control
same,T/C,"dose: 8.0 mg/kg/injection, vehicle: suspension in saline",-76 % of control and 4 % of control
